Measurements: US20250009878A1

Target: WT MCT4/BSG-2 complex (mouse) (mouse), P57787
Experiment: cell-based or functional assay

Chain of WT MCT4/BSG-2 complex (mouse) (mouse), P57787 (P57787 whole entry, chain 1 of 2): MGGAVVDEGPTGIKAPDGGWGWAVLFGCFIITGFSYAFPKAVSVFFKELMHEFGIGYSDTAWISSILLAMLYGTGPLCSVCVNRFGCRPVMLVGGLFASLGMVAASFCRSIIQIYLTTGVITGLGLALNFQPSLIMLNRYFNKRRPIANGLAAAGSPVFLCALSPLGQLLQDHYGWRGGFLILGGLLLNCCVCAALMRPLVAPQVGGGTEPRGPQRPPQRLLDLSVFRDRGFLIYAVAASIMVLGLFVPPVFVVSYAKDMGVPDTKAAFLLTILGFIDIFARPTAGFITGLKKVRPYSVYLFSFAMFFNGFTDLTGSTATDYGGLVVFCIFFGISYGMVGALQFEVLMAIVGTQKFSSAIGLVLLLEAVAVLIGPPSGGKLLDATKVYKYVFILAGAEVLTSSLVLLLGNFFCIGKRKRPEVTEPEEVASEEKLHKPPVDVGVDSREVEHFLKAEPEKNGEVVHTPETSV
Chain of WT MCT4/BSG-2 complex (mouse) (mouse), P57787 (P18572 other isoform, or with tags, fused parts or gaps, chain 2 of 2, further chain): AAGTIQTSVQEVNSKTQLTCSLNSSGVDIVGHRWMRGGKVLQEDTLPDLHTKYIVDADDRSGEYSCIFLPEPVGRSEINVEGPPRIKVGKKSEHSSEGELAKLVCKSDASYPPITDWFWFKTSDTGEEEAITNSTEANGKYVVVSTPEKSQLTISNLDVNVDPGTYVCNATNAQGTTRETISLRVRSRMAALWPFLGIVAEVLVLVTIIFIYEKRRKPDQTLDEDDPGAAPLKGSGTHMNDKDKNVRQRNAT

decrease in transport activity (H+ influx, HPTS proteoliposome flux assay): 50%
B1: WZHAb10 (antibody, human IgG1, kappa)
heavy: QVQLVQSGAEVKKPGASVKVSCKASGYTFTNYWIHWVRQAPGQGLEWMGMIHPNSGSINYNEKFKTRVTMTRDTSTSTVYMELSSLRSEDTAVYYCARVGSGSLDYWGQGTLVTVSS[human IgG1 constant region left out here]
light: EIVLTQSPATLSLSPGERATLSCRASQSISDYLHWYQQKPGQAPRLLIKYVSQSISGIPARFSGSGSGTYFTLTISSLEPEDVAVYYCQNGEEAPYTFGQGTKLEIKRTVAAPSVFIFPPSDEQLKSGTASVVCLLNNFYPREAKVQWKVDNALQSGNSQESVTEQDSKDSTYSLSSTLTLSKADYEKHKVYACEVTHQGLSSPVTKSFNRGEC
